From ChEMBL document CHEMBL4888484, “Replenishing the malaria drug discovery pipeline: Screening and hit evaluation of the MMV Hit Generation Library 1 (HGL1) against asexual blood stage Plasmodium falciparum ,using a nano luciferase reporter read-out” (2022) come the findings set out here.

About 540 (0.36%) of roughly 150,000 compounds showed an effect of 50% or more. The list shows a part of the results.

The assay relates to Plasmodium falciparum. The assay is described as follows: Primary screen in NF54 nanoGlo assay, in single point, at 2uM, 72h; a lower Z score goes with more inhibition. It counts as functional, Erythrocyte. The following applies: timepoint 72 hour.
Consider `O=C(c1n[nH]c2ccccc12)N1C[C@@H]2CC[C@H]1CN(Cc1ccccn1)C2`, for which the “% Inhibition” value was -18% and the Z score worked out at 3.14.
For `CC(C)(O)c1ccc(CNC(=O)N2C3CCC2CC(CCF)C3)cc1` (centres undefined) the same measures were -7% and 0.97.
With `CCCN1C(=O)CC[C@@H]2CN(C(=O)c3cc[nH]n3)CC[C@@H]21`, the “% Inhibition” value is -10% and the Z score was 2.02.
Consider `CC(C)(C)OC(=O)N1CCC(S(N)(=O)=O)CC1`, for which the “% Inhibition” value is -18% and the Z score is recorded as 3.53.
With `CCN(CC)CCN(C(=O)c1ccc(S(=O)(=O)N2CCOCC2)cc1)c1nc2cc3c(cc2s1)OCCO3`, the “% Inhibition” value was 16% and the Z score is on record as -2.08.
For `CCn1nc(C)nc1CCCc1c[nH]c2ccccc12` the same measures were 3% and -0.49.
For `O=c1c2cnc(N3CCc4ccccc4C3)nc2ccn1-c1cccc(F)c1`, the “% Inhibition” value is given as -15% and the Z score is recorded as 2.
In the case of `Cn1nc2c(c1-c1cncc(C(F)F)c1)CCCC2`, the “% Inhibition” value is 3% and the Z score is -0.32.
With `COc1ccc(C)c2sc(N(CCCN(C)C)C(=O)c3ccnn3C)nc12`, the “% Inhibition” value is recorded as -7% and the Z score was found to be 1.27.
The corresponding values for `CCOc1cc(CNc2ccc(N3CCNC(=O)C3)nc2)cc(Cl)c1OC` are -8% and 0.89.
The corresponding values for `O=C(c1cc(=O)c2ccccc2[nH]1)N1Cc2ccccc2CO1` are 1% and -0.1.
For `CCOC(=O)c1cccc(NC(=O)Cn2c(=O)n(C(C)C)c(=O)c3sc(N4CCCCC4)nc32)c1` the same measures were -16% and 1.44.
In the case of `Cc1noc(C)c1S(=O)(=O)N[C@@H](C)C(=O)N1CCCC(C)CC1` (some centres undefined), the “% Inhibition” value is -7% and the Z score turned out to be 0.97.
For `CC(=O)N1CCCN(c2nc3c(s2)CCC3)CC1` the same measures were -18% and 2.58.
For `CC(C)OC(=O)CN(CCC(N)=O)c1ccc(F)cc1` the same measures were -6% and 0.59.
Regarding `Cc1nc(C)c(CC(=O)N(Cc2ccncc2)C2CCCCC2)s1`, the “% Inhibition” value is given as -7% and the Z score was 1.27.
For `CCc1cnc(CN2C(=O)NC3(CCC3)C2=O)o1`, the “% Inhibition” value amounted to 2% and the Z score was -0.33.
For `Cc1cccc2c1OCC[C@@H]2NC(=O)N1CCC[C@H]1CO` the same measures were -12% and 1.25.
As for `O=C(CCNc1ncc(Cl)cn1)N1CCOCC1`, the “% Inhibition” value is on record as -5% and the Z score amounted to 0.64.
For `Cn1cc2c(n1)c(=O)n(Cc1ccc(F)cc1)c(=O)n2CC(=O)Nc1cccc(Cl)c1` the same measures were -12% and 1.49.
For `CCc1onc(C)c1CS(=O)(=O)c1ccc(C)s1` the same measures were -12% and 2.05.
For `CNC(=O)c1ccc(-c2nc(CN3CCN(S(=O)(=O)c4ccc(OC)cc4)CC3)c(C)o2)cc1` the same measures were -18% and 2.66.
Turning to `Cc1ccc2c(C(=O)N[C@@H](C)Cn3cncn3)cc(-c3cncnc3)nc2c1C`, the “% Inhibition” value is recorded as -7% and the Z score stood at 1.16.
For `Cc1n[nH]c(C)c1[C@H](C)N(C)C(=O)c1cn(C2CCCCCC2)nn1`, the “% Inhibition” value was 9% and the Z score is given as -1.29.
For `Cc1noc(COC2CCN(C(=O)c3cccc(F)c3)CC2)n1` the same measures were -5% and 0.66.
With `c1cnc(N2CCCC2)c(-c2ccc3[nH]ccc3c2)n1`, the “% Inhibition” value was 1% and the Z score is -0.21.
Consider `Cc1oncc1C(=O)N1CCC[C@H](Oc2ccncn2)C1`, for which the “% Inhibition” value was 9% and the Z score is listed as -1.2.
For `CCOc1ccc(-c2c[nH]c(-c3cccc(OCC(N)=O)c3)n2)cc1` the same measures were -3% and 0.32.
For `CN(C)CCC1CCN(S(=O)(=O)CCC(C)(C)C)CC1` the same measures were -5% and 0.65.
Regarding `O=C(Nc1ccc(N2CCCS2(=O)=O)cc1)c1ccc2c(c1)OCO2`, the “% Inhibition” value is recorded as -20% and the Z score was 2.58.
The corresponding values for `COc1ccc(NC(=O)OCC(F)(F)F)c(OC)c1` are -1% and 0.12.
With `O=C(CN1CCCCC1)NC1CCN(Cc2ccccc2)CC1`, the “% Inhibition” value came to 2% and the Z score is reported as -0.36.
The corresponding values for `NC(=O)Cc1ccc(NS(=O)(=O)N2CCc3ccccc3C2)cc1` are -9% and 0.83.
For the compound `Cc1ccc(N2CCCC2=O)cc1NC(=O)N1CCC(c2n[nH]cc2C)CC1`, the “% Inhibition” value is recorded as -8% and the Z score was determined as 1.78.
With `CC1CC(C(=O)N2CCN(C(=O)Cc3c[nH]c4ccccc34)CC2)C1` (centres undefined), the “% Inhibition” value was -3% and the Z score is 0.48.
For `Cc1[nH]cnc1CNC(=O)[C@H](C)N1CCCCC1` the same measures were -10% and 1.8.
In the case of `CC[C@@H](C(=O)N1CC(c2nc(-c3cnccn3)no2)C1)c1ccccc1`, the “% Inhibition” value stood at 0% and the Z score is on record as 0.04.
For `O=C(NC1CC1)c1csc(COc2ccc3c(c2)[C@H](c2ccc(F)cc2)N(C(=O)c2ccco2)CC3)n1` the same measures were 19% and -2.94.
For `O=C1CC[C@]2(C(=O)NCCc3c[nH]c4ccccc34)CCC=C2N1C1CCCC1` the same measures were -16% and 1.55.
With `Cc1nc(N2CCC(OCc3cccnc3)CC2)c2ccsc2n1`, the “% Inhibition” value is 9% and the Z score is given as -1.25.
With `N#Cc1ccc(S(=O)(=O)c2c(C(=O)N3CCCCC3)cnc3ccc(F)cc23)cc1`, the “% Inhibition” value is given as -13% and the Z score turned out to be 1.24.
The corresponding values for `Cn1cc(C(=O)C[C@H]2CCCN2S(=O)(=O)c2ccc3c(c2)C(C)(C)C(=O)N3)cn1` are 3% and -0.45.

Usually % Inhibition stands for the relative decrease from the control value, in per cent.
